Assay results: PMC11995724, “Antibiotic target discovery by integrated phenotypic and activity-based profiling of electrophilic fragments” (Cell chemical biology, 2025)
Screen size: about 3,200 compounds; about 110 (3.4%) showed an effect of 50% or more. This is one part of the list.

test system: T1, V. cholerae SAD30; set-up: species or system S. aureus MSSA476 (TSB) or V. cholerae SAD30 (LB); 384-well bacterial growth screen at 25 uM, OD600 relative to DMSO control; details: relative growth, OD600, LB; 25 µM; inhibitor
T1 construct: SAD30

SMILES | % of control remaining
CC(Cl)C(=O)NCc1nn(-c2ccccc2)c2c1CCC2 (centres unmarked) [7-P05, 2-chloro-N-({1-phenyl-1H,4H,5H,6H-cyclopenta[c]pyrazol-3-yl}methyl)propanamide] | 70.1801%
COc1ccc(NC(=O)c2ccccc2NC(=O)CCl)cc1 [4-L05, 2-(2-chloroacetamido)-N-(4-methoxyphenyl)benzamide] | 109.209%
C=CC(=O)NCC1CCC2(CCCOC2)O1 (centres unmarked) [2-O13, N-({1,7-dioxaspiro[4.5]decan-2-yl}methyl)prop-2-enamide] | 86.9536%
CSc1ccc(C=C(C#N)C(=O)Nc2ccc3c(c2)OCCO3)cc1 [9-L05, 2-cyano-N-(2,3-dihydro-1,4-benzodioxin-6-yl)-3-[4-(methylsulfanyl)phenyl]prop-2-enamide] | 91.8423%
C=CC(=O)N(Cc1sc(C)nc1C)[C@@H](C)[C@H]1COC(C)(C)O1 [1-B15, N-[(1S)-1-[(4S)-2,2-dimethyl-1,3-dioxolan-4-yl]ethyl]-N-[(2,4-dimethyl-1,3-thiazol-5-yl)methyl]prop-2-enamide] | 85.2018%
CC1CCCN(Cc2ccc(CNC(=O)CCl)cc2)C1.Cl (centres unmarked) [6-K04, 2-chloro-N-({4-[(3-methylpiperidin-1-yl)methyl]phenyl}methyl)acetamide hydrochloride] | 90.8522%
CC1CCCN(C(=O)C(NC(=O)C(C)Cl)c2cnn(C)c2)C1 (centres unmarked) [7-G12, 2-chloro-N-[1-(1-methyl-1H-pyrazol-4-yl)-2-(3-methylpiperidin-1-yl)-2-oxoethyl]propanamide] | 74.5415%
C=CC(=O)NCc1cccc(CNS(C)(=O)=O)c1 [3-F11, N-{[3-(methanesulfonamidomethyl)phenyl]methyl}prop-2-enamide] | 90.8546%
CC(Cl)C(=O)NCC1c2ccccc2C(=O)N1Cc1ccccc1 (centres unmarked) [6-H20, N-[(2-benzyl-3-oxo-2,3-dihydro-1H-isoindol-1-yl)methyl]-2-chloropropanamide] | 88.5771%
C=CC(=O)NCC1(c2ccccc2)CC1(F)F (centres unmarked) [2-O20, N-[(2,2-difluoro-1-phenylcyclopropyl)methyl]prop-2-enamide] | 90.3503%
N#CC(=Cc1cnc2ccc(C#N)cn12)C(=O)Nc1ccc(F)cc1 [9-E20, 2-cyano-3-{6-cyanoimidazo[1,2-a]pyridin-3-yl}-N-(4-fluorophenyl)prop-2-enamide] | 86.6757%
